Data taken from the supplement of paper PMC4604168 (melanoma cell lines).
This is one part of the list. Many values rest on one well or one pass, so single values are uncertain.

tested on: WM3526; assay: cell count relative to DMSO control; melanoma cells; higher = more viable cells; settings: library dose: standard library concentration; 72 h
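Also: cells treated in 1,536-well plates, then fixed and DAPI-stained, with nuclei counted from automated high-throughput microscope images.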

| Compound | cell count [%] |
| --- | --- |
| Cn1nnc2c(C(N)=O)ncn2c1=O [temozolomide] + Oc1nc(-c2ccc(C(F)(F)F)cc2)nc2c1CSCC2 [XAV939] (first compound 10 µM, partner dose 10 µM) | 98.9 |
| O=C(Nc1cc(C(F)(F)F)cc(C(F)(F)F)c1)c1cc(Cl)ccc1O + C[C@]1(c2nc3c(C(N)=O)cccc3[nH]2)CCCN1 [Veliparib] (first compound 0.08 µM, partner dose 7 µM) | 79.3 |
| O=C(O)c1ccc2c(c1)nc(Nc1cccc(Cl)c1)c1ccncc12 + O=C(Nc1ccccc1)c1cc([N+](=O)[O-])ccc1Cl [GW9662] (first compound 2 µM, partner dose 10 µM) | 58.8 |
| O=C(O)c1ccc2c(c1)nc(Nc1cccc(Cl)c1)c1ccncc12 + Cn1cc(/C=C2\C(=O)Nc3cccnc32)c2ccccc21 [GW441756] (first compound 2 µM, partner dose 2 µM) | 78.2 |
| O=C(O)[C@@H]1[O][Sb](=[O])([O][Sb]2(=[O])[O][C@H]([C@H](O)CO)[C@H](O)[C@H](C(=O)O)[O]2)[O][C@H]([C@H](O)CO)[C@@H]1O (stereo not given in full) [stibogluconate] + COc1ccc2c(c1)CCC1C2CCC2(C)C(NCCCCCCN3C(=O)C=CC3=O)CCC12 [U73122] (first compound 10 µM, partner dose 2 µM) | 95.1 |
